# The data scatter; read single values as rough.
# Test: amyloid nucleation score relative to library mode (yeast Sup35 reporter selection) (log enrichment difference); higher = more amyloid nucleation; sequences are the first 22 residues of the Bri2 peptide extended by up to 12 random residues
# Settings: random library (experiment): 1;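 active = nucleation score significantly above 0 at FDR 0.05; inactive = not significantly above 0 or absent from output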
# 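Further: [psi-pin-] Saccharomyces cerevisiae expressing SupN fusions, induced by 100 µM Cu2SO4, selected 7 d at 30 °C without adenine and uracil, scored by deep sequencing of output versus input.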
row,Sequence,amyloid nucleation score
1,EASNCFAIRHFENKFAVETLICLGNANDTSPVLI,inactive
2,EASNCFAIRHFENKFAVETLICLGNAVEDDDSTS,2.83
3,EASNCFAIRHFENKFAVETLICLGNGTGGLATLR,inactive
4,EASNCFAIRHFENKFAVETLICLGNGVPAGEECV,inactive
5,EASNCFAIRHFENKFAVETLICLGNTVGTSMRGD,6.36
6,EASNCFAIRHFENKFAVETLICLGNYVDCCGVWG,3.31
7,EASNCFAIRHFENKFAVETLICLGQSEN,inactive
8,EASNCFAIRHFENKFAVETLICLGRTRCKVSFVY,inactive
9,EASNCFAIRHFENKFAVETLICLGSFTRVHRGVI,inactive
10,EASNCFAIRHFENKFAVETLICLGSGYYYWVLLR,inactive
11,EASNCFAIRHFENKFAVETLICLGVAGLG,inactive
12,EASNCFAIRHFENKFAVETLICLGVRFCS,7.36
13,EASNCFAIRHFENKFAVETLICLGVVICVRGLRR,inactive
14,EASNCFAIRHFENKFAVETLICLGWSMGGKRSTR,6.27
15,EASNCFAIRHFENKFAVETLICLGWWGSATVWEK,inactive
16,EASNCFAIRHFENKFAVETLICLGYGLVLKVRRV,-0.399
17,EASNCFAIRHFENKFAVETLICLGYSRMEAEF,1.75
18,EASNCFAIRHFENKFAVETLICLHAKKFPSGLHI,inactive
19,EASNCFAIRHFENKFAVETLICLHAQTGSRVLEV,2.54
20,EASNCFAIRHFENKFAVETLICLHARSYLDWGG,inactive
21,EASNCFAIRHFENKFAVETLICLHASRMAVTSKM,inactive
22,EASNCFAIRHFENKFAVETLICLHCPARLRRRRR,4.46
23,EASNCFAIRHFENKFAVETLICLHDANGSNEMLP,-0.187
24,EASNCFAIRHFENKFAVETLICLHDICPFGCMYG,6.05

row,Sequence,amyloid nucleation score
1,EASNCFAIRHFENKFAVETLICLHFGGCVPKGCN,6.79
2,EASNCFAIRHFENKFAVETLICLHGSSRRGEVMS,inactive
3,EASNCFAIRHFENKFAVETLICLHHLKPLSGRYR,0.243
4,EASNCFAIRHFENKFAVETLICLHLF,6.25
5,EASNCFAIRHFENKFAVETLICLHLSASLSPLRL,3.13
6,EASNCFAIRHFENKFAVETLICLHLVPFSESVSS,inactive
7,EASNCFAIRHFENKFAVETLICLHLVVVGSQMRG,inactive
8,EASNCFAIRHFENKFAVETLICLHLWCG,inactive
9,EASNCFAIRHFENKFAVETLICLHLWWYHVMDRN,inactive
10,EASNCFAIRHFENKFAVETLICLHRWKYQGMGRS,3.96
11,EASNCFAIRHFENKFAVETLICLHSPGSLFEVVV,inactive
12,EASNCFAIRHFENKFAVETLICLHTCTGNMLWW,inactive
13,EASNCFAIRHFENKFAVETLICLHTSGCAGIGSG,inactive
14,EASNCFAIRHFENKFAVETLICLHVLVRARDRIY,0.474
15,EASNCFAIRHFENKFAVETLICLHVWRLIPMVRH,inactive
16,EASNCFAIRHFENKFAVETLICLHWYGTHGLLVL,inactive
17,EASNCFAIRHFENKFAVETLICLHYGGIGGLLSL,4
18,EASNCFAIRHFENKFAVETLICLI,6.52
19,EASNCFAIRHFENKFAVETLICLICVRSRYCRGV,-0.475
20,EASNCFAIRHFENKFAVETLICLIDIEFSSDGAR,5.6
21,EASNCFAIRHFENKFAVETLICLIDMRFAGVSKR,1.32
22,EASNCFAIRHFENKFAVETLICLIELETLDSYLR,inactive
23,EASNCFAIRHFENKFAVETLICLIGKLGGRYYAS,inactive
24,EASNCFAIRHFENKFAVETLICLIGVSYRTWSSE,6.28

# Same assay, conditions: random library (experiment): 2
row,Sequence,amyloid nucleation score
1,EASNCFAIRHFENKFAVETLICLGMFCNLLSDMG,inactive
2,EASNCFAIRHFENKFAVETLICLGMKFEFNFCTQ,7.47
3,EASNCFAIRHFENKFAVETLICLGMLMWSINRCL,inactive
4,EASNCFAIRHFENKFAVETLICLGMYGRCLVTYK,inactive
5,EASNCFAIRHFENKFAVETLICLGNAGMNMTWA,5.88
6,EASNCFAIRHFENKFAVETLICLGR,-0.419
7,EASNCFAIRHFENKFAVETLICLGRFGCFIHVW,inactive
8,EASNCFAIRHFENKFAVETLICLGRNSTVVVVFL,inactive
9,EASNCFAIRHFENKFAVETLICLGSSVSKELGLR,4.6
10,EASNCFAIRHFENKFAVETLICLGSTSCEHWVVC,inactive
11,EASNCFAIRHFENKFAVETLICLGVYLNEQDIVV,4.71
12,EASNCFAIRHFENKFAVETLICLGYVSDTVAVCG,-0.239
13,EASNCFAIRHFENKFAVETLICLHAIILVGIQAW,inactive
14,EASNCFAIRHFENKFAVETLICLHDNRWSSIYAW,inactive
15,EASNCFAIRHFENKFAVETLICLHEGMVLFFSML,inactive
16,EASNCFAIRHFENKFAVETLICLHH,inactive
17,EASNCFAIRHFENKFAVETLICLHIPYIKRVDTA,inactive
18,EASNCFAIRHFENKFAVETLICLHKFSMWRWGLR,-0.351
19,EASNCFAIRHFENKFAVETLICLHLVSMSTSTN,inactive
20,EASNCFAIRHFENKFAVETLICLHLYSFDGYVGY,inactive
21,EASNCFAIRHFENKFAVETLICLHMLGFFISDVR,inactive

row,Sequence,amyloid nucleation score
1,EASNCFAIRHFENKFAVETLICLHPR,1.93
2,EASNCFAIRHFENKFAVETLICLHQVQMHRKG,0.528
3,EASNCFAIRHFENKFAVETLICLHTALKGSMVIG,inactive
4,EASNCFAIRHFENKFAVETLICLHTCAVTYLWG,inactive
5,EASNCFAIRHFENKFAVETLICLHTCIFSGDM,3.68
6,EASNCFAIRHFENKFAVETLICLHWSRASVCESL,inactive
7,EASNCFAIRHFENKFAVETLICLHYNFGENSFRS,3.47
8,EASNCFAIRHFENKFAVETLICLHYVVCHGLSVT,inactive
9,EASNCFAIRHFENKFAVETLICLIAVWA,0.58
10,EASNCFAIRHFENKFAVETLICLIDYILLGSNSR,inactive
11,EASNCFAIRHFENKFAVETLICLIDYNVSNPLYG,0.892
12,EASNCFAIRHFENKFAVETLICLIEVRYLQEFRK,inactive
13,EASNCFAIRHFENKFAVETLICLIFDSVFVGILR,-0.255
14,EASNCFAIRHFENKFAVETLICLIFTMISLGNDG,inactive
15,EASNCFAIRHFENKFAVETLICLIGDLPFISVGW,inactive
16,EASNCFAIRHFENKFAVETLICLIGGSFKDRPFR,7.28
17,EASNCFAIRHFENKFAVETLICLIGPANSICGST,5.05
18,EASNCFAIRHFENKFAVETLICLIGWILVTYVCA,-0.409
19,EASNCFAIRHFENKFAVETLICLIHEARRRGSRE,4.66
20,EASNCFAIRHFENKFAVETLICLIHKKSHIKL,inactive
21,EASNCFAIRHFENKFAVETLICLIIFM,inactive

# Same assay, conditions: random library (experiment): 3
row,Sequence,amyloid nucleation score
1,EASNCFAIRHFENKFAVETLICLGMHSGTGGDWG,inactive
2,EASNCFAIRHFENKFAVETLICLGMM,6.4
3,EASNCFAIRHFENKFAVETLICLGNLVDYLSVLL,inactive
4,EASNCFAIRHFENKFAVETLICLGNVVFSCGAEW,6.57
5,EASNCFAIRHFENKFAVETLICLGPGVESRGVVA,inactive
6,EASNCFAIRHFENKFAVETLICLGQAGGAWLTLC,inactive
7,EASNCFAIRHFENKFAVETLICLGRCAAGVGTKR,inactive
8,EASNCFAIRHFENKFAVETLICLGRCVRSQMLWA,inactive
9,EASNCFAIRHFENKFAVETLICLGRDWTIKWWMM,inactive
10,EASNCFAIRHFENKFAVETLICLGRRMLWASLGS,inactive
11,EASNCFAIRHFENKFAVETLICLGSFLSELTCPR,3.48
12,EASNCFAIRHFENKFAVETLICLGSYSAMRLFPM,-0.321
13,EASNCFAIRHFENKFAVETLICLGT,5.53
14,EASNCFAIRHFENKFAVETLICLGTSDTCVFNCN,8.91
15,EASNCFAIRHFENKFAVETLICLGVAWGRMEQAW,inactive
16,EASNCFAIRHFENKFAVETLICLGVQRERQDMVG,3.92
17,EASNCFAIRHFENKFAVETLICLGWRFCRSCGR,inactive
18,EASNCFAIRHFENKFAVETLICLGWW,7.6
19,EASNCFAIRHFENKFAVETLICLGYRAS,6.59
20,EASNCFAIRHFENKFAVETLICLHAKKVIVARDP,inactive
21,EASNCFAIRHFENKFAVETLICLHGVEADRCLEW,inactive
22,EASNCFAIRHFENKFAVETLICLHHYN,-0.253
23,EASNCFAIRHFENKFAVETLICLHIVMDGGVCYV,inactive
24,EASNCFAIRHFENKFAVETLICLHKTWASVYCGS,inactive
25,EASNCFAIRHFENKFAVETLICLHL,7.24
26,EASNCFAIRHFENKFAVETLICLHPPSIFMSTSS,4.39
27,EASNCFAIRHFENKFAVETLICLHSYFRALALFT,inactive
28,EASNCFAIRHFENKFAVETLICLHVAMQPKGAKS,inactive
29,EASNCFAIRHFENKFAVETLICLHVMGMLGPR,3.03

# — the supplement of paper PMC12067230
